# Some of the results follow.
# B1: Pwp2 (Candida glabrata) (protein)
# chain: MGSSHHHHHHSSGLVPRGSHMASKNPVELNNVCTFPNDYGRIPGFTVLVGRLGLLISASDYKELLRYPGAFLIATQDTMTTSPNFELTGFPFFTGLYGLTVFPLDLLVELRGYFVPPNSGQYTFTLSDSDDAAIIFLGNPSAFPCGDLQNWPKPSEEDITVTDHLFPSRTLYLIEGVAYPMRIAYYNGIGAGRLNAAFIDPSGTRHTNWEGYIWQYDPCSTCTYS
# Experiments:
# Assay in all cases: glycan array binding signal (z-score within array); higher = stronger binding
# Conditions in all cases: glycan notation: IUPAC condensed, linker removed
# [1] = molecular target: Neu5Ac(a2-3)Gal(b1-3)GalNAc
# In short: (§1)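 Columns mapping to the same glycan were averaged after glycan names were converted to IUPAC-condensed notation. The data come from 3228 arrays in the Consortium for Functional Glycomics database, limited to those with an available protein sequence. Binding is reported as a within-array Z-score averaged across arrays of one protein sequence and across linkers.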
# [2] = molecular target: Neu5Ac(a2-3)Gal(b1-3)GalNAc(b1-3)Gal(a1-4)Gal(b1-4)Glc
# In short: as §1
# [3] = molecular target: Neu5Ac(a2-3)Gal(b1-3)GalNAc(b1-4)Gal(b1-4)Glc
# In short: as §1
# [4] = molecular target: Neu5Ac(a2-3)Gal(b1-3)GalNAc(b1-4)[Neu5Ac(a2-3)]Gal(b1-4)Glc
# In short: as §1
# [5] = molecular target: Neu5Ac(a2-3)Gal(b1-3)GalNAc(b1-4)[Neu5Ac(a2-8)Neu5Ac(a2-3)]Gal(b1-4)Glc
# In short: as §1
# [6] = molecular target: Neu5Ac(a2-3)Gal(b1-3)GalNAc6S
# In short: as §1
# [7] = molecular target: Neu5Ac(a2-3)Gal(b1-3)GlcNAc
# In short: as §1
# [8] = molecular target: Neu5Ac(a2-3)Gal(b1-3)GlcNAc(b1-2)Man
# In short: as §1
# [9] = molecular target: Neu5Ac(a2-3)Gal(b1-3)GlcNAc(b1-2)Man(a1-3)[GlcNAc(b1-4)][Neu5Ac(a2-3)Gal(b1-3)GlcNAc(b1-2)Man(a1-6)]Man(b1-4)GlcNAc(b1-4)GlcNAc
# In short: as §1
# [10] = molecular target: Neu5Ac(a2-3)Gal(b1-3)GlcNAc(b1-2)Man(a1-3)[Neu5Ac(a2-3)Gal(b1-3)GlcNAc(b1-2)Man(a1-6)]Man(b1-4)GlcNAc(b1-4)GlcNAc
# In short: as §1
# [11] = molecular target: Neu5Ac(a2-3)Gal(b1-3)GlcNAc(b1-2)[Neu5Ac(a2-3)Gal(b1-3)GlcNAc(b1-4)]Man(a1-6)[Neu5Ac(a2-3)Gal(b1-3)GlcNAc(b1-2)Man(a1-3)]Man(b1-4)GlcNAc(b1-4)GlcNAc
# In short: as §1
# [12] = molecular target: Neu5Ac(a2-3)Gal(b1-3)GlcNAc(b1-3)Gal(b1-3)GlcNAc
# In short: as §1
# [13] = molecular target: Neu5Ac(a2-3)Gal(b1-3)GlcNAc(b1-3)Gal(b1-4)GlcNAc
# In short: as §1
# [14] = molecular target: Neu5Ac(a2-3)Gal(b1-3)GlcNAc(b1-3)GalNAc
# In short: as §1
# [15] = molecular target: Neu5Ac(a2-3)Gal(b1-3)GlcNAc(b1-6)GalNAc
# In short: as §1
# [16] = molecular target: Neu5Ac(a2-3)Gal(b1-3)GlcNAc6S
# In short: as §1
# [17] = molecular target: Neu5Ac(a2-3)Gal(b1-3)[Fuc(a1-4)]GlcNAc
# In short: as §1
# [18] = molecular target: Neu5Ac(a2-3)Gal(b1-3)[Fuc(a1-4)]GlcNAc(b1-3)Gal(b1-3)[Fuc(a1-4)]GlcNAc
# In short: as §1
# [19] = molecular target: Neu5Ac(a2-3)Gal(b1-3)[Fuc(a1-4)]GlcNAc(b1-3)Gal(b1-4)[Fuc(a1-3)]GlcNAc
# In short: as §1
# [20] = molecular target: Neu5Ac(a2-3)Gal(b1-3)[GlcNAc(b1-6)]GalNAc
# In short: as §1
# [21] = molecular target: Neu5Ac(a2-3)Gal(b1-3)[Neu5Ac(a2-6)]GalNAc
# In short: as §1
# [22] = molecular target: Neu5Ac(a2-3)Gal(b1-3)[Neu5Ac(a2-6)]GlcNAc(b1-3)[Fuc(a1-3)[Gal(b1-4)]GlcNAc(b1-6)]Gal(b1-4)Glc
# In short: as §1
# [23] = molecular target: Neu5Ac(a2-3)Gal(b1-3)]Neu5Ac(a2-3)Gal(b1-4)]GlcNAc
# In short: as §1
# Neu5Ac(a2-3)Gal(b1-4)Glc = molecular target: Neu5Ac(a2-3)Gal(b1-4)Glc
# In short: as §1
# [24] = molecular target: Neu5Ac(a2-3)Gal(b1-4)GlcNAc
# In short: as §1
# [25] = molecular target: Neu5Ac(a2-3)Gal(b1-4)GlcNAc(b1-2)Man
# In short: as §1
# [26] = molecular target: Neu5Ac(a2-3)Gal(b1-4)GlcNAc(b1-2)Man(a1-3)[GlcNAc(b1-4)][Neu5Ac(a2-3)Gal(b1-4)GlcNAc(b1-2)Man(a1-6)]Man(b1-4)GlcNAc(b1-4)GlcNAc
# In short: as §1
# [27] = molecular target: Neu5Ac(a2-3)Gal(b1-4)GlcNAc(b1-2)Man(a1-3)[Neu5Ac(a2-3)Gal(b1-4)GlcNAc(b1-2)Man(a1-6)]Man(b1-4)GlcNAc(b1-4)GlcNAc
# In short: as §1
# [28] = molecular target: Neu5Ac(a2-3)Gal(b1-4)GlcNAc(b1-2)Man(a1-3)[Neu5Ac(a2-3)Gal(b1-4)GlcNAc(b1-2)Man(a1-6)]Man(b1-4)GlcNAc(b1-4)[Fuc(a1-6)]GlcNAc
# In short: as §1
# [29] = molecular target: Neu5Ac(a2-3)Gal(b1-4)GlcNAc(b1-2)Man(a1-3)[Neu5Ac(a2-6)Gal(b1-4)GlcNAc(b1-2)Man(a1-6)]Man(b1-4)GlcNAc(b1-4)GlcNAc
# In short: as §1
# [30] = molecular target: Neu5Ac(a2-3)Gal(b1-4)GlcNAc(b1-2)[Neu5Ac(a2-3)Gal(b1-4)GlcNAc(b1-4)]Man(a1-3)[GlcNAc(b1-4)][Neu5Ac(a2-3)Gal(b1-4)GlcNAc(b1-2)[Neu5Ac(a2-3)Gal(b1-4)GlcNAc(b1-6)]Man(a1-6)]Man(b1-4)GlcNAc(b1-4)GlcNAc
# In short: as §1
# [31] = molecular target: Neu5Ac(a2-3)Gal(b1-4)GlcNAc(b1-2)[Neu5Ac(a2-3)Gal(b1-4)GlcNAc(b1-4)]Man(a1-3)[GlcNAc(b1-4)][Neu5Ac(a2-3)Gal(b1-4)GlcNAc(b1-4)Man(a1-6)]Man(b1-4)GlcNAc(b1-4)GlcNAc
# In short: as §1
# [32] = molecular target: Neu5Ac(a2-3)Gal(b1-4)GlcNAc(b1-2)[Neu5Ac(a2-3)Gal(b1-4)GlcNAc(b1-6)]Man(a1-6)[Neu5Ac(a2-3)Gal(b1-4)GlcNAc(b1-2)Man(a1-3)][GlcNAc(b1-4)]Man(b1-4)GlcNAc(b1-4)GlcNAc
# In short: as §1
# [33] = molecular target: Neu5Ac(a2-3)Gal(b1-4)GlcNAc(b1-3)Gal
# In short: as §1
# [34] = molecular target: Neu5Ac(a2-3)Gal(b1-4)GlcNAc(b1-3)Gal(b1-3)GlcNAc
# In short: as §1
# [35] = molecular target: Neu5Ac(a2-3)Gal(b1-4)GlcNAc(b1-3)Gal(b1-4)GlcNAc
# In short: as §1
# [36] = molecular target: Neu5Ac(a2-3)Gal(b1-4)GlcNAc(b1-3)Gal(b1-4)GlcNAc(b1-2)Man(a1-3)[Neu5Ac(a2-3)Gal(b1-4)GlcNAc(b1-3)Gal(b1-4)GlcNAc(b1-2)Man(a1-6)]Man(b1-4)GlcNAc(b1-4)GlcNAc
# In short: as §1
# [37] = molecular target: Neu5Ac(a2-3)Gal(b1-4)GlcNAc(b1-3)Gal(b1-4)GlcNAc(b1-3)Gal(b1-4)GlcNAc
# In short: as §1
# [38] = molecular target: Neu5Ac(a2-3)Gal(b1-4)GlcNAc(b1-3)Gal(b1-4)GlcNAc(b1-3)Gal(b1-4)GlcNAc(b1-2)Man(a1-3)[Neu5Ac(a2-3)Gal(b1-4)GlcNAc(b1-3)Gal(b1-4)GlcNAc(b1-3)Gal(b1-4)GlcNAc(b1-2)Man(a1-6)]GalNAc
# In short: as §1
# [39] = molecular target: Neu5Ac(a2-3)Gal(b1-4)GlcNAc(b1-3)Gal(b1-4)GlcNAc(b1-3)GalNAc
# In short: as §1
# [40] = molecular target: Neu5Ac(a2-3)Gal(b1-4)GlcNAc(b1-3)Gal(b1-4)GlcNAc(b1-3)[Neu5Ac(a2-3)Gal(b1-4)GlcNAc(b1-3)Gal(b1-4)GlcNAc(b1-6)]GalNAc
# In short: as §1
# [41] = molecular target: Neu5Ac(a2-3)Gal(b1-4)GlcNAc(b1-3)Gal(b1-4)GlcNAc(b1-6)[Gal(b1-3)]GalNAc
# In short: as §1
# [42] = molecular target: Neu5Ac(a2-3)Gal(b1-4)GlcNAc(b1-3)Gal(b1-4)[Fuc(a1-3)]GlcNAc
# In short: as §1
# [43] = molecular target: Neu5Ac(a2-3)Gal(b1-4)GlcNAc(b1-3)GalNAc
# In short: as §1
# [44] = molecular target: Neu5Ac(a2-3)Gal(b1-4)GlcNAc(b1-3)[Neu5Ac(a2-3)Gal(b1-4)GlcNAc(b1-6)]GalNAc
# In short: as §1
binder,measurement,setting,value
B1,glycan array binding signal (z-score),[1],0.274
same,glycan array binding signal (z-score),[2],-0.307
same,glycan array binding signal (z-score),[3],-0.305
same,glycan array binding signal (z-score),[4],-0.274
same,glycan array binding signal (z-score),[5],-0.08
same,glycan array binding signal (z-score),[6],-0.264
same,glycan array binding signal (z-score),[7],-0.299
same,glycan array binding signal (z-score),[8],0.011
same,glycan array binding signal (z-score),[9],-0.326
same,glycan array binding signal (z-score),[10],0.088
same,glycan array binding signal (z-score),[11],-0.179
same,glycan array binding signal (z-score),[12],-0.269
same,glycan array binding signal (z-score),[13],-0.444
same,glycan array binding signal (z-score),[14],-0.419
same,glycan array binding signal (z-score),[15],-0.375
same,glycan array binding signal (z-score),[16],-0.456
same,glycan array binding signal (z-score),[17],0.549
same,glycan array binding signal (z-score),[18],4
same,glycan array binding signal (z-score),[19],0.002
same,glycan array binding signal (z-score),[20],0.001
same,glycan array binding signal (z-score),[21],1.54
same,glycan array binding signal (z-score),[22],0
same,glycan array binding signal (z-score),[23],-0.501
same,glycan array binding signal (z-score),Neu5Ac(a2-3)Gal(b1-4)Glc,-0.112
same,glycan array binding signal (z-score),[24],-0.767
same,glycan array binding signal (z-score),[25],-0.276
same,glycan array binding signal (z-score),[26],-0.475
same,glycan array binding signal (z-score),[27],-0.115
same,glycan array binding signal (z-score),[28],0.96
same,glycan array binding signal (z-score),[29],0.204
same,glycan array binding signal (z-score),[30],-0.464
same,glycan array binding signal (z-score),[31],-0.533
same,glycan array binding signal (z-score),[32],4.22
same,glycan array binding signal (z-score),[33],-0.399
same,glycan array binding signal (z-score),[34],-0.645
same,glycan array binding signal (z-score),[35],-0.464
same,glycan array binding signal (z-score),[36],-0.165
same,glycan array binding signal (z-score),[37],-0.783
same,glycan array binding signal (z-score),[38],0.272
same,glycan array binding signal (z-score),[39],1.15
same,glycan array binding signal (z-score),[40],-0.034
same,glycan array binding signal (z-score),[41],1.44
same,glycan array binding signal (z-score),[42],2.37
same,glycan array binding signal (z-score),[43],-0.508
same,glycan array binding signal (z-score),[44],-0.452
